Measured values from the supplement of paper PMC3724861.
Some of the results follow.

system: T1, Caupolican (Caup) homeodomain DNA-binding domain; experiment: PBM E-score (8-mer, recovered from the published 9-mer minima) (E-score (dimensionless, -0.5 to 0.5)); Drosophila protein; higher = stronger relative binding preference, active = 0.31 or more
T1 sequence: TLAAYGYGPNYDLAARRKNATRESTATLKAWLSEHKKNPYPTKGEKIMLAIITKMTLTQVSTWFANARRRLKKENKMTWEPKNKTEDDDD
Summary of the method: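 An enrichment score, with higher meaning stronger, expresses relative binding preference for each short DNA word. The protein used was Caup's homeodomain DNA-binding domain (residues 214-303), produced by in vitro transcription and translation and tested at 100 nM on custom-designed protein binding microarrays. The 8-mer values were recovered from published 9-mer scores, each equal to the lower of its two constituent 8-mer scores.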

PBM E-score, active:
AGTACATC 0.342

PBM E-score, inactive:
TAAGTATA 0.168
AATTCCCT 0.0285
GGCACCAC -0.122
CATTGCGC -0.0634
AACTGTGC 0.00366
CAAGCTCC -0.113
ACCAGTGC -0.019
CGGTAAGA -0.116
AAGTGAGT 0.0344
CCCACGGG -0.26
TCAGAACA 0.245
AAGGAAGG 0.00353
GCTGTCAA 0.057
CACTAGTC 0.129
GTGCACTA 0.0884
AGTGAATA 0.135
GGCGCAAC -0.19
AAAGTAAC 0.0893
ACCTCTAG -0.0769
AGTAATAC 0.146
CGGCTGGA -0.226
ACGCCCAA -0.0625
ACAAAGTA 0.188
ATATTGCC 0.0197
AACACACC 0.188
AGGCGCCC -0.312
CGACAGTA -0.0427
GAGAGAGA -0.0674
CGTCATAC 0.0986
AATTCGGC -0.0352
GCCTTTAA -0.0796
ATATGTGG 0.182
CTGCGCGA -0.0149
AGACAACT 0.191
GCTTCGAA -0.00964
GTGTAAGA 0.224
ACCCCTTA -0.0966
GGAACGAA -0.0681
CTACCGTC -0.156
CTAGAGAG -0.125
GAGGTGTA 0.152
CAAGGGTG -0.0566
CTTCAGGC -0.205
CGCTAGAG -0.149
ATCATTCA 0.178
CGATTAGC -0.0349
AACGGATC 0.112
GCGGATTA 0.0244
GCTGCAGC -0.261
TAAGGTAA 0.081
ACTTTGCT 0.0012
CGGGTTAC -0.0194
CGAGTGAC -0.00498
GAGTAGCC -0.112
TCCTTTAA 0.008
CCCGCGTC -0.154
GTGTCGCA 0.176
AATGTGCC -0.0817
GGGAGACA 0.00931
CCGCGAGC -0.208
GCGTTACC -0.0921
ATCGTAGG 0.00115
CACCAGTC -0.0551
GCGACACA 0.148
CGTAGATA 0.181
CCGGGCAA -0.204
AGATTGCA 0.0484
ACTGTGGG -0.0135
ATATAATG 0.223
GGTAAACA 0.213
AAATCTGG -0.0647
AGCTGAAC -0.0556
AAGGGGGC -0.238
AGTGAAGC -0.0928
GTGATCAC 0.126
AATCGACC -0.00754
AGTTCCCC -0.213
TACTCGAA 0.0901
AAAGCATC 0.0658
AAGTAAGG 0.0246
AGGACTTA -0.0147
CCTGCATA -0.0836
CCCAGTAC 0.0222
GCCCCTCC -0.212
AATGGGTA 0.124
CGCGGATC -0.195
CGCACAGC -0.242
AACGGTAT 0.0117
AAGAGCGC -0.106
GGAACACA 0.26
ACCCCCGG -0.234
CGGGTAAG -0.0951
ACTATCCC -0.119
CGTTAAAA -0.0507
CATGGAGC -0.0084
GCCGTATA 0.0675
GCACCTCC -0.28
CTTGGAGC -0.14
AAAGCGGA -0.0838
CGGCCGTC -0.185
CATCCGAA 0.074
AGGCGGCG -0.157
CACTGCCC -0.0974
CCCCGCTA -0.215
GGTCGTTA 0.0219
TCACCAGA -0.0464
GGGTAGCA -0.177
CCTAACCA 0.0546
GCCCAATA -0.00456
ATTGTCAC 0.224
